The campaign covered roughly 390,000 compounds. About 4,700 (1.2%) were called active. Inconclusive results, whose numbers are uncertain, are shown with a selection of clear calls. Calls follow the shape of the dose curve; as a rule, active = well fitted inhibition curve with a large enough effect; inconclusive = small, poorly fitted or top-dose-only effect, or another doubt; inactive = no such curve, though single readings can be large or run the other way. Potencies of inconclusive entries are doubtful fits and often do not repeat.
Each molecule was assayed against DNA polymerase eta (Homo sapiens) (UniProt Q9Y253) (assay: qHTS for Inhibitors of Polymerase Eta). Conditions: recombinant Pol eta, fluorescent DNA replication assay; series mostly up to 114 µM.
Sequence of UniProt Q9Y253 (Q9Y253 whole entry, looked up): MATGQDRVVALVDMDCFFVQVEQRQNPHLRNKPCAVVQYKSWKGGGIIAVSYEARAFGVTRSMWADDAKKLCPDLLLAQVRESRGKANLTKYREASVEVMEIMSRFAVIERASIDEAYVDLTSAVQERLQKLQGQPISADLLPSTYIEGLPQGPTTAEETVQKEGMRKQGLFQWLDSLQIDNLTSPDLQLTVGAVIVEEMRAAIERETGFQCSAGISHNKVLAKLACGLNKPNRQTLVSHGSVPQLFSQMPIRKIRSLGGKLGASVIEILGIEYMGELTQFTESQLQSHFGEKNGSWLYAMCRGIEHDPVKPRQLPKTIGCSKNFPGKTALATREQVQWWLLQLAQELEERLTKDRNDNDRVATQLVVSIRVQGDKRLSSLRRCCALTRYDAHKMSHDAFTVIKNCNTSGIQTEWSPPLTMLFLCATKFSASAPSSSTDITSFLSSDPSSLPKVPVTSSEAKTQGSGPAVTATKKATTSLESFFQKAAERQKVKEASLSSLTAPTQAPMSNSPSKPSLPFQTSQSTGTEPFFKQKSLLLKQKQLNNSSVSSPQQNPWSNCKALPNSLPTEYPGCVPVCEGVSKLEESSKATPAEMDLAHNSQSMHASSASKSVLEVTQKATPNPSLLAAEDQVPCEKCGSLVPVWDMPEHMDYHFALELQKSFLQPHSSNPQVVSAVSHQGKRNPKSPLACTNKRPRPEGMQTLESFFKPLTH
Summary of the method: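 Fluorescent replication assay: 50 nM final substrate added after a 15 min room-temperature compound preincubation with 10 nM enzyme. Signal taken at 0 min and again at 10 min.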
Potency is read from the fitted curve at half-maximal effect; tags tell the direction and shape of the fitted curve.

`C#CCOCCOCCOCCNc1nc(N2CCN(C(=O)[C@H]([C@@H](C)CC)n3cc(CCC(=O)O)nn3)CC2)nc(N2CCN(C(=O)[C@H](CCCCN)n3cc(CC(C)O)nn3)CC2)n1` (stereo partly drawn) was tested. Which Potency did it give?
The Potency was “inactive”.

Which Potency does the source give for `COc1cccc(-n2c(C)c3c(OC)cccc(=O)c3c2C)c1` here?
The Potency was inconclusive: 79.4 µM [inhibitor, single point].

`CCCc1c(-c2ccc(O)cc2)nn(-c2ccc(O)cc2)c1-c1ccc(O)cc1` was tested. Which Potency did it give?
The Potency was “inactive”.

How did the Potency turn out when `Oc1c(Cl)cc(Cl)c(Cl)c1Cc1c(O)c(Cl)cc(Cl)c1Cl` was run?
The Potency was active: 44.7 µM.

With `CC1=C(C(=O)OCc2ccccc2)C(c2ccccc2-c2ccccc2)NC(=O)N1CCCCCC(=O)O` (stereo not drawn) as the molecule, how does the Potency read?
The Potency was inconclusive: 56.2 µM [inhibitor, partial curve, poor fit].

`Cc1ccc(NC(=O)CCC(=O)N2CCSc3ccccc32)cc1Cl` was tested. Which Potency did it give?
Its Potency is inconclusive: 79.4 µM [inhibitor, partial curve, poor fit].

How did the Potency turn out when `CCOC(=O)c1c(NC(=O)C2COc3ccccc3O2)sc2c1CC(C)(C)NC2(C)C` (stereo not drawn) was run?
Its Potency is inconclusive: 35.5 µM [inhibitor, partial curve, poor fit].

`CCCN(CCC)S(=O)(=O)c1ccc(C(=O)Nc2nnc(COC)o2)cc1` was tested. Which Potency did it give?
Its Potency is inconclusive: 100 µM [inhibitor, partial curve, poor fit].

For `CCOc1cc(/C=N/Nc2nn3cnnc3c3ccccc23)ccc1O`, which Potency is on record?
Its Potency is inconclusive: 50.1 µM [inhibitor, partial curve].

`COc1cn(CC(=O)Nc2ccc(C)cc2)c(CN2CCCCC2)cc1=O` was tested. Which Potency did it give?
The Potency was “inactive”.

With `COc1ccc([N+](=O)[O-])cc1N(CC1CO1)S(=O)(=O)c1ccc(C)cc1` (stereo not drawn) as the molecule, how does the Potency read?
The Potency was “inactive”.

Which Potency does the source give for `COC(=O)c1[nH]c2ccc(C)cc2c1NC(=O)CN1CCCC(C)(C)C1` here?
Its Potency is inconclusive: 50.1 µM [inhibitor, partial curve, poor fit].

How did the Potency turn out when `COc1cc(/C=N/Nc2nc3ccccc3s2)cc([N+](=O)[O-])c1O` was run?
Its Potency is active: 56.2 µM.

How did the Potency turn out when `CCSc1nnc(-c2ccccc2N=Cc2c(C)[nH]n(-c3ccccc3)c2=O)c(=O)[nH]1` was run?
The Potency was inconclusive: 50.1 µM [inhibitor, partial curve, poor fit].

How did the Potency turn out when `Cc1cccc(-n2nc3c(c2NC(=O)c2ccc(Br)o2)CSC3)c1` was run?
The Potency was “inactive”.

How did the Potency turn out when `CN(C)C(=O)c1ccc(N=Nc2c(O)c3ccccc3[nH]c2=O)cc1` was run?
The Potency was “inactive”.

Which Potency does the source give for `Brc1ccc(C2Nc3cccc4cccc(c34)N2)o1` here?
Its Potency is “inactive”.

Which Potency does the source give for `COc1ccc(N(C(=O)c2snc(C(N)=O)c2N)C(C(=O)NC2CCCC2)c2cc(OC)ccc2OC)c(OC)c1` (stereo not drawn) here?
The Potency was “inactive”.

Which Potency does the source give for `Nc1nnc2c(n1)CCCC2` here?
Its Potency is inconclusive: 17.8 µM [inhibitor, partial curve, poor fit].

With `CCCCN(c1ccccc1)S(=O)(=O)c1cccc(C(=O)Nc2c(C)n(C)n(-c3ccccc3)c2=O)c1` as the molecule, how does the Potency read?
The Potency was inconclusive: 89.1 µM [inhibitor, partial curve, poor fit].

For `CC(C)N(C(=O)CSc1nnc(NC(=O)Cc2cccs2)s1)C(C)C`, which Potency is on record?
Its Potency is “inactive”.

Which Potency does the source give for `Fc1cccc(NCCc2c[nH]c3ccccc23)n1` here?
The Potency was “inactive”.

Which Potency does the source give for `O=C(Nc1nc(-c2ccccn2)cs1)C1CC(=O)N(c2ccc3c(c2)OCCO3)C1` (stereo not drawn) here?
The Potency was inconclusive: 15.8 µM [inhibitor, partial curve].

With `CN(C)CCC1(C2=CCCC2)CC/C(=C/c2ccc(Cl)cc2)C1=O` (stereo not drawn) as the molecule, how does the Potency read?
The Potency was “inactive”.

For `CCC1CCCCN1CCCNC(=O)c1ccc2c(c1)N(Cc1cccc(Cl)c1)C(=O)c1ccccc1S2(=O)=O` (stereo not drawn), which Potency is on record?
Its Potency is “inactive”.

How did the Potency turn out when `O=C1Nc2ccccc2/C1=C\c1cccn1-c1ccc(OC(F)(F)F)cc1` was run?
The Potency was inconclusive: 89.1 µM [inhibitor, partial curve, poor fit].

How did the Potency turn out when `CN(Cc1ccccc1)C(=O)Cn1c(=O)oc2cc(S(=O)(=O)N3CCCC3)ccc21` was run?
The Potency was inconclusive: 79.4 µM [inhibitor, partial curve, poor fit].

Which Potency does the source give for `COc1ccc(NC(=O)Cn2c(=O)n(-c3ccc(OC)cc3)c(=O)c3sc4ccccc4c32)cc1` here?
The Potency was “inactive”.

Which Potency does the source give for `CN(C)c1nc(Nc2ccc(F)cc2)nc(Oc2ccc(F)cc2)n1` here?
Its Potency is “inactive”.

For `Cc1nnc(NC(=O)c2sc3nc(-c4cccs4)cc(C(F)(F)F)c3c2N)s1`, which Potency is on record?
Its Potency is active: 6.31 µM.

`Cc1cc2nc(-c3ccc(OCc4ccccc4F)cc3)cc(C(F)(F)F)n2n1` was tested. Which Potency did it give?
The Potency was “inactive”.

Which Potency does the source give for `COC(=O)c1c(NC(=O)C2COc3ccccc3O2)sc2c1CCN(C(C)=O)C2` (stereo not drawn) here?
The Potency was inconclusive: 25.1 µM [inhibitor, partial curve, poor fit].

For `Cc1cccc(C)c1Nc1nnc(SCC(=O)Nc2ncc(C(F)(F)F)cc2Cl)s1`, which Potency is on record?
The Potency was inconclusive: 25.1 µM [inhibitor, full curve, poor fit].

Which Potency does the source give for `CCc1ccc(N(CC)C(=O)c2cn(C)c(=O)c3cc(OC)c(OC)cc23)cc1` here?
The Potency was inconclusive: 89.1 µM [inhibitor, single point].

With `Cc1ccc(-c2csc(NS(=O)(=O)c3cccc(F)c3)n2)o1` as the molecule, how does the Potency read?
Its Potency is active: 25.1 µM.

`CCN(CC)CCNc1ccc(CO)c2oc3cc(Cl)ccc3c(=O)c12` was tested. Which Potency did it give?
Its Potency is “inactive”.

How did the Potency turn out when `Cc1cc(SCC(=O)Nc2ccc(F)cc2F)nc(=O)[nH]1` was run?
Its Potency is inconclusive: 89.1 µM [inhibitor, single point].

With `CC(C)(C)NC(=O)c1cc(-c2ccc3c(c2)OCO3)nc2ccccc12` as the molecule, how does the Potency read?
Its Potency is inconclusive: 39.8 µM [inhibitor, single point].

How did the Potency turn out when `COc1ccc2cc3cc(C(=O)NCc4ccco4)oc3nc2c1` was run?
The Potency was active: 15.8 µM.

How did the Potency turn out when `Cc1ccc(CNC(=O)CCS(=O)(=O)c2ccc(Br)cc2)cc1` was run?
Its Potency is active: 10 µM.

`COc1ccccc1NC(=O)c1cc2cc3ccc(OC)c(Cl)c3nc2s1` was tested. Which Potency did it give?
Its Potency is inconclusive: 56.2 µM [inhibitor, partial curve, poor fit].

Which Potency does the source give for `Cn1c(N2CCOCC2)nc2c1c(=O)n(Cc1ccc(Cl)c(Cl)c1)c(=O)n2C` here?
Its Potency is inconclusive: 89.1 µM [inhibitor, partial curve, poor fit].

How did the Potency turn out when `Clc1ccc2[nH]c3c(NCCCN4CCOCC4)ncnc3c2c1` was run?
The Potency was inconclusive: 50.1 µM [inhibitor, partial curve].

For `CC(=O)c1cccc(NCC(=O)N2CCN(S(=O)(=O)c3ccccc3)CC2)c1`, which Potency is on record?
Its Potency is “inactive”.

How did the Potency turn out when `Cc1ccc(/C=C/C(=O)Nc2nccs2)o1` was run?
The Potency was “inactive”.

Which Potency does the source give for `CC1CCCC(NC(=O)COC(=O)c2ccc3ccccc3n2)C1C` (stereo not drawn) here?
The Potency was inconclusive: 39.8 µM [inhibitor, partial curve, poor fit].

`Cc1nc2ccc(-c3nc4ccc(N)cc4[nH]3)cc2[nH]1` was tested. Which Potency did it give?
Its Potency is inconclusive: 44.7 µM [inhibitor, partial curve].

How did the Potency turn out when `COc1ccc2nc(-n3c(O)c(C4=c5ccccc5=NC4=O)[nH]c3=S)sc2c1` was run?
The Potency was active: 8.91 µM.

How did the Potency turn out when `COc1cc(N=Nc2cccc(S(N)(=O)=O)c2)c2ccccc2c1N` was run?
Its Potency is inconclusive: 17.8 µM [inhibitor, full curve].

How did the Potency turn out when `CCOC(=O)C1=C(CSc2nc3c(cc2C#N)CN(C)CC3)OC(N)=C(C#N)C1c1ccncc1` (stereo not drawn) was run?
Its Potency is inconclusive: 35.5 µM [inhibitor, partial curve, poor fit].

Which Potency does the source give for `O=C(CNC(=O)c1ccccc1O)N/N=C/c1cc(Br)ccc1OC(=O)/C=C/c1ccco1` here?
Its Potency is inconclusive: 56.2 µM [inhibitor, partial curve, poor fit].

How did the Potency turn out when `O=C(NCc1ccco1)C(Cc1ccccc1)N1C(=O)C2C3C=CC(C3)C2C1=O` (stereo not drawn) was run?
The Potency was inconclusive: 22.4 µM [inhibitor, partial curve, poor fit].

With `COc1ccc(-c2nnc(Nc3ccc(OC)c(C(=O)N4CCCCC4)c3)c3ccccc23)cc1` as the molecule, how does the Potency read?
Its Potency is inconclusive: 20 µM [inhibitor, partial curve, poor fit].

Which Potency does the source give for `O=C(OCC(=O)N1CCCC1=O)c1nc(Cl)c(Cl)c(Cl)c1Cl` here?
The Potency was active: 56.2 µM.

How did the Potency turn out when `COc1cc2c(cc1OC)C(c1cc(OC)c(OC)c(OC)c1)NCC2` (stereo not drawn) was run?
Its Potency is inconclusive: 39.8 µM [inhibitor, single point].

For `Cc1cccc(C)c1OCC(O)CN(Cc1ccccc1O)C1CCCCC1` (stereo not drawn), which Potency is on record?
Its Potency is inconclusive: 79.4 µM [inhibitor, partial curve, poor fit].

With `CCOc1cc(/C=C2\C(=O)N(c3nc(-c4ccc(Br)cc4)cs3)N=C2c2ccccc2)ccc1O` as the molecule, how does the Potency read?
Its Potency is active: 10 µM.

How did the Potency turn out when `Cc1cc(-c2csc(N)n2)c(C)n1C` was run?
The Potency was inconclusive: 14.1 µM [inhibitor, partial curve].

Which Potency does the source give for `CCN(c1ccccc1)S(=O)(=O)c1cc(C(=O)OC2CCOC2=O)ccc1C` (stereo not drawn) here?
The Potency was inconclusive: 79.4 µM [inhibitor, partial curve].

With `COc1cc(OC)cc(-c2cc3nc(C)c(CCC(=O)O)c(=O)n3[nH]2)c1` as the molecule, how does the Potency read?
Its Potency is “inactive”.

Which Potency does the source give for `COc1ccc(-c2nc(-c3cccs3)c(-c3cccs3)[nH]2)cc1O` here?
Its Potency is inconclusive: 28.2 µM [inhibitor, single point].

For `COCCn1cnnc1SCC(=O)Nc1sccc1C(N)=O`, which Potency is on record?
Its Potency is inconclusive: 50.1 µM [inhibitor, partial curve].

With `O=C(NCCc1ccccc1)c1ccc(=O)oc1` as the molecule, how does the Potency read?
Its Potency is “inactive”.

With `CCOC(=O)C1Nc2ccc(C(=O)O)cc2C2C=CCC12` (stereo not drawn) as the molecule, how does the Potency read?
Its Potency is active: 2.82 µM.

For `CCOc1cc(/C=N/N=C2/NC(=O)C(CC(=O)O)S2)ccc1OCc1ccccc1Cl` (stereo not drawn), which Potency is on record?
Its Potency is inconclusive: 89.1 µM [inhibitor, partial curve, poor fit].

For `CC(=O)Nc1sc2c(c1-c1nc3ccccc3s1)CCN(C(C)C)C2`, which Potency is on record?
The Potency was inconclusive: 15.8 µM [inhibitor, full curve, poor fit].

For `Cc1ccc(N(CN2C(=O)C3CC=CCC3C2=O)C(=O)c2ccco2)cc1Cl` (stereo not drawn), which Potency is on record?
Its Potency is inconclusive: 31.6 µM [inhibitor, partial curve].

`Cc1c(NC(=O)COC(=O)c2c3c(nc4ccccc24)CCCC3)c(=O)n(-c2ccccc2)n1C` was tested. Which Potency did it give?
Its Potency is “inactive”.

Reference: PubChem BioAssay AID588591 (National Center for Advancing Translational Sciences (NCATS), 2011)
